For one test, the system named is HSkMC. Put plainly: cytotoxicity call (relative viability < 0.9). The note with it: 10 µM.
Another test concerns HepG2. In words: cytotoxicity call (relative viability < 0.9). The conditions noted are these: 10 µM.
The subject of a further test is S. aureus RN4220. Put plainly: growth inhibition call (relative growth <= 0.2). The note with it: 50 µM.

Structures are written as SMILES. This is one part of the list.

In the case of `O=C(C[C@@H]1CC[C@H](NC(=O)CN2CCOCC2)[C@@H](CO)O1)NCCc1ccncc1`, the cytotoxicity call in the test with HSkMC and in the test with HepG2 was “inactive” in each case. Besides, the growth inhibition call in the test on S. aureus RN4220 is “inactive”.
Take `COc1ccc(S(=O)(=O)N(C)C[C@H]2Oc3ccc(NC(=O)c4ccncc4)cc3CC(=O)N([C@H](C)CO)C[C@@H]2C)cc1`: the cytotoxicity call in the test with HSkMC and with HepG2 was “inactive” each time. In the test with S. aureus RN4220, the growth inhibition call is “inactive”.
With `C[C@@H]1CCCCO[C@H](CN(C)C(=O)Nc2ccc3c(c2)OCO3)[C@H](C)CN([C@@H](C)CO)C(=O)c2cc(NC(=O)Nc3ccc(F)cc3)ccc2O1`, the cytotoxicity call in the test with HSkMC and with HepG2 was “inactive” each time. The growth inhibition call in the test with S. aureus RN4220 is “inactive”.
With `C[C@H]1CN([C@@H](C)CO)C(=O)c2cc(NC(=O)CCN3CCOCC3)ccc2O[C@H]1CN(C)CC1CC1`, the cytotoxicity call in the test with HSkMC and in the test with HepG2 was “inactive” throughout. Moreover, the growth inhibition call in the test on S. aureus RN4220 is “inactive”.
Regarding `COc1ccc(NC(=O)N(C)C[C@@H]2OCCCC[C@@H](C)Oc3ccc(NC(=O)Nc4cccc5ccccc45)cc3C(=O)N([C@H](C)CO)C[C@@H]2C)cc1`, the cytotoxicity call in the test with HSkMC and with HepG2 was “inactive” each time. Also, in the test with S. aureus RN4220, the growth inhibition call was “inactive”.
For `CCS(=O)(=O)N1CCN(C[C@@H](C)O)CC1`, the cytotoxicity call with HSkMC and in the test on HepG2 was “inactive” each time. Further, the growth inhibition call with S. aureus RN4220 was “inactive”.
In the case of `C[C@@H]1CN([C@@H](C)CO)C(=O)c2cccc(NC(=O)Nc3ccc4c(c3)OCO4)c2O[C@@H]1CN(C)Cc1ccc(Cl)c(Cl)c1`, the cytotoxicity call in the test with HSkMC and with HepG2 was “inactive” each time. Also, the growth inhibition call with S. aureus RN4220 is “inactive”.
With `CC(C)(C)NC[C@@H](O)CSc1nc(-c2ccc(C(N)=O)s2)cs1`, the cytotoxicity call in the test with HSkMC and in the test on HepG2 was “inactive” throughout. Further, the growth inhibition call in the test on S. aureus RN4220 is “inactive”.
For the compound `CCC(CCC(C)C1CCC2C3CC=C4CC(OC(C)=O)CCC4(C)C3CCC12C)C(C)C` (stereo unspecified), the cytotoxicity call in the test on HSkMC and in the test on HepG2 was “inactive” throughout. Moreover, the growth inhibition call in the test on S. aureus RN4220 was “inactive”.
On to `C[C@@H]1CCCCO[C@H](CN(C)Cc2ccc(C(F)(F)F)cc2)[C@H](C)CN([C@H](C)CO)C(=O)c2cc(NC(=O)CCCN(C)C)ccc2O1`, for which the cytotoxicity call in the test on HSkMC and in the test with HepG2 was “inactive” each time. In addition, in the test on S. aureus RN4220, the growth inhibition call was “inactive”.
On to `C[C@H](CO)N1C[C@H](C)[C@H](CN(C)Cc2ccccc2)Oc2c(NS(=O)(=O)c3cn(C)cn3)cccc2C1=O`, for which the cytotoxicity call with HSkMC and with HepG2 was “inactive” throughout. For the same compound, in the test with S. aureus RN4220, the growth inhibition call is “inactive”.
For `COc1ccc(S(=O)(=O)Nc2ccc3c(c2)CC(=O)N([C@H](C)CO)C[C@H](C)[C@H](CN(C)S(=O)(=O)c2ccc(OC)cc2)O3)cc1`, the cytotoxicity call in the test on HSkMC and in the test with HepG2 was “inactive” in each case. Besides, the growth inhibition call in the test with S. aureus RN4220 was “inactive”.
As for `N[C@@H](C(=O)O)[C@@H](O)[C@H](O)[C@H](O)CO`, the cytotoxicity call in the test with HSkMC and in the test on HepG2 was “inactive” in each case. For the same compound, the growth inhibition call in the test on S. aureus RN4220 was “inactive”.
With `C/C=C1\[C@H](O[C@@H]2O[C@H](CO)[C@@H](O)[C@H](O)[C@H]2O)OC=C(C(=O)O)[C@H]1CC(=O)OCCc1ccc(O)cc1`, the cytotoxicity call in the test on HSkMC and in the test on HepG2 was “inactive” each time. Also, the growth inhibition call with S. aureus RN4220 is “inactive”.
Take `C[C@H]1CN([C@@H](C)CO)C(=O)CCCn2nncc2CO[C@H]1CN(C)S(=O)(=O)c1ccc(-c2ccccc2)cc1`: the cytotoxicity call in the test with HSkMC and in the test on HepG2 was “inactive” in each case. In addition, the growth inhibition call in the test on S. aureus RN4220 is “inactive”.
As for `CCCNC(=O)Nc1ccc2c(c1)OC[C@@H](C)N(Cc1ccc(-c3ccccn3)cc1)C[C@H](C)[C@H](OC)CN(C)C2=O`, the cytotoxicity call in the test on HSkMC and in the test with HepG2 was “inactive” throughout. In addition, the growth inhibition call in the test with S. aureus RN4220 is “inactive”.
Turning to `COc1ccc(S(=O)(=O)Nc2ccc3c(c2)C(=O)N([C@@H](C)CO)C[C@@H](C)[C@@H](CN(C)Cc2ccc(C(F)(F)F)cc2)OCCCC[C@@H](C)O3)cc1`, in the test with HSkMC, the cytotoxicity call is “inactive”. Further, the cytotoxicity call in the test on HepG2 was “active”. In the test on S. aureus RN4220, the growth inhibition call was “inactive”.
On to `CC(C)[Si](C#C[Si](C(C)C)(C(C)C)C(C)C)(O[C@H](C)c1cn(Cc2cccc(Cl)c2)nn1)C(C)C`, for which the cytotoxicity call in the test on HSkMC and with HepG2 was “inactive” throughout. Moreover, the growth inhibition call in the test on S. aureus RN4220 is “inactive”.
As for `C[C@@H]1CN([C@@H](C)CO)C(=O)c2cc(NS(=O)(=O)c3ccc(Cl)cc3)ccc2O[C@@H](C)CCCCO[C@H]1CN(C)C(=O)c1ccncc1`, the cytotoxicity call with HSkMC and in the test with HepG2 was “inactive” in each case. Moreover, the growth inhibition call with S. aureus RN4220 is “inactive”.
For `CN1CCN(C(=O)C[C@@H]2CC[C@@H]3[C@@H](COc4ccc(NC(=O)C5CCOCC5)cc4C(=O)N3C)O2)CC1`, the cytotoxicity call in the test on HSkMC and in the test with HepG2 was “inactive” each time. For the same compound, the growth inhibition call in the test on S. aureus RN4220 was “inactive”.
As to `C[C@@H]1CN([C@@H](C)CO)C(=O)c2cc(N(C)C)ccc2O[C@@H](C)CCCCO[C@@H]1CN(C)Cc1ccc(C(=O)Nc2ccccc2N)cc1`, the cytotoxicity call with HSkMC and with HepG2 was “inactive” each time. In addition, in the test on S. aureus RN4220, the growth inhibition call was “inactive”.
Turning to `C[C@@H]1CN([C@@H](C)CO)C(=O)Cc2cc(NC(=O)Cc3ccccc3)ccc2O[C@@H]1CN(C)S(C)(=O)=O`, the cytotoxicity call in the test with HSkMC and in the test on HepG2 was “inactive” each time. In the test with S. aureus RN4220, the growth inhibition call is “inactive”.
Take `Cc1noc(C)c1NC(=O)Nc1ccc2c(c1)C(=O)N([C@@H](C)CO)C[C@@H](C)[C@H](CN(C)C(=O)Nc1c(C)noc1C)OCCCC[C@@H](C)O2`: the cytotoxicity call with HSkMC and in the test with HepG2 was “inactive” throughout. In addition, the growth inhibition call in the test on S. aureus RN4220 was “inactive”.
Regarding `CN(C)CCCNC(=O)C[C@H]1CC[C@H]2[C@H](COc3ccc(NS(C)(=O)=O)cc3C(=O)N2C)O1`, the cytotoxicity call in the test on HSkMC and with HepG2 was “inactive” each time. Also, the growth inhibition call with S. aureus RN4220 was “inactive”.
Turning to `O=C(C[C@@H]1C[C@H]2c3cc(NS(=O)(=O)c4ccc(F)cc4)ccc3O[C@H]2[C@H](CO)O1)NCc1ccccc1`, the cytotoxicity call with HSkMC and in the test with HepG2 was “inactive” in each case. Besides, the growth inhibition call in the test on S. aureus RN4220 is “inactive”.
Turning to `O=C(Nc1ccc2c(c1)[C@@H]1C[C@@H](CC(=O)N3CCc4ccccc4C3)O[C@@H](CO)[C@@H]1O2)C1CCOCC1`, the cytotoxicity call in the test with HSkMC and in the test on HepG2 was “inactive” each time. The growth inhibition call in the test on S. aureus RN4220 is “inactive”.
As for `COc1ccc(S(=O)(=O)Nc2ccc3c(c2)C(=O)N([C@H](C)CO)C[C@@H](C)[C@@H](CN(C)CC2CCCCC2)OCCCC[C@H](C)O3)cc1`, the cytotoxicity call in the test on HSkMC (human skeletal muscle cells) and with HepG2 was “inactive” each time. Also, in the test with S. aureus RN4220, the growth inhibition call is “inactive”.

The record behind these values is the antibiotic and cytotoxicity screens of Wong et al. (2023).
